# PubChem BioAssay AID624296 (National Center for Advancing Translational Sciences (NCATS), 2012)
# Among all 350,000 compounds or so, about 9,900 (2.8%) were called active. The shares of active, inactive and inconclusive entries below differ from those in the screen. Calls follow the shape of the dose curve; as a rule, active = well fitted activation curve with a large enough effect; inconclusive = small, poorly fitted or top-dose-only effect; inactive = no such curve, though single readings can be large or run the other way. No potency is given beside an inconclusive call; the fits are too rough.
# Assay: A quantitative high throughput screen for small molecules that induce DNA re-replication in MCF 10a normal breast cells. Also: nearly all actives have a fitted effect of over 50% in size. As to activity, positive = re-replication: % of control where 0% means no effect.
# Details: MCF 10A DNA re-replication, Hoechst nuclear intensity, 48 h; activity, positive = re-replication: at 46.1 µM (top of the series)
# Potency is read from the fitted curve at half-maximal effect; tags tell the direction and shape of the fitted curve.
Compound,Potency,"activity, positive = re-replication"
Cc1ccccc1-c1cc(C(=O)NCc2ccc(OC(F)(F)F)cc2)nn1CC1CC(c2cccc([N+](=O)[O-])c2)=NO1 (stereo unspecified),"inconclusive [activator, single point]",–
CCOc1ccc(CNC(=O)c2ccc3nc(N4CCOCC4)sc3c2)cc1,–,inactive: 2.15%
Cc1[nH][nH]c(=O)c1C=NCc1ccc(Cl)cc1,–,inactive: 8.05%
CCOC(=O)C1CCCN(C(=O)c2ccc3c(c2)N(C)C(=O)/C(=C/c2ccccc2Cl)S3)C1 (stereo unspecified),"inconclusive [activator, single point]",–
CCOC(=O)C1(Cc2cccc(OC)c2)CCN(C/C=C/c2ccc(OC)cc2)CC1,"inconclusive [activator, single point]",–
O=C(CSCc1ccc(F)cc1)NCc1ccc2c(c1)OCO2,"inconclusive [activator, single point]",–
COc1cc(C(=O)OCC(=O)NC(=O)c2cccn2C)ccc1OC(F)F,"inconclusive [activator, single point]",–
Cc1ccc(-c2nn(C)c(=O)c3ccccc23)cc1CNS(C)(=O)=O,"inconclusive [activator, full curve, poor fit]",–
CC(=O)C(Sc1nc(N2CCOCC2)nc(N2CCOCC2)n1)C(=O)Nc1ccccc1 (stereo unspecified),–,inactive: 16.9%
COC(=O)CSc1cc(SCC(=O)OC)c(C#N)c(SCC(=O)OC)c1,"inconclusive [activator, single point]",–
COc1ccc(C(=O)Cn2cnc3ccc(Cl)cc3c2=O)cc1F,"inconclusive [activator, full curve, poor fit]",–
NC1=NC(=O)/C(=C\c2ccco2)S1,–,inactive: 1.85%
Cc1nc(-c2ccccc2)sc1C(=O)/C=C/c1ccc(Cl)cc1,active: 4.11 µM,–
CCN(CC)C(=O)/C(=C\c1ccncc1)NC(=O)c1ccccc1,–,inactive: -2%
O=C(Cc1csc(Nc2nc(=S)[nH]c3ccccc23)n1)NCc1ccccc1Cl,"inconclusive [activator, partial curve, poor fit]",–
C#CCNC(=O)C1=C[C@@H](c2ccccc2)C[C@@H](OCCCCO)O1,"inconclusive [activator, single point]",–
CCOc1ccc(NC(=O)CN(C)C(=O)c2ccc(COc3ccccc3)o2)cc1OCC,–,inactive: -1.69%
O=C(NCc1ccccc1CN1CCCC1)C1CCN(S(=O)(=O)c2ccc(F)c(F)c2)CC1,–,inactive: 14.8%
S=C(N/N=C/c1ccc2c(c1)OCO2)NC1CC2CCC1C2 (stereo unspecified),–,inactive: 1.44%
C/C(=N\NC(=O)C1CC1)c1ccc(C(C)(C)C)cc1,"inconclusive [activator, full curve, poor fit]",–
COc1ccccc1C(=O)NC(CCSC)C(=O)N1CCC(Cc2ccccc2)CC1 (stereo unspecified),"inconclusive [activator, single point]",–
CC(=O)Cn1ncc(Br)c(Br)c1=O,active: 2.06 µM,–
Cc1cc2ccccn2c1C(=O)c1ccc(Cl)cc1,–,inactive: -6.06%

Compound,Potency,"activity, positive = re-replication"
O=c1c2oc3ccccc3c2ncn1Cc1ccccc1Cl,"inconclusive [activator, partial curve, poor fit]",–
CCN1CCN(c2ccc(NC(=O)c3ccc4c(c3)[nH]c(=O)n4Cc3ccc(F)cc3)cc2)CC1,"inconclusive [activator, single point]",–
Cn1c(=O)c2c(nc(CN3CCN(C(=O)c4ccco4)CC3)n2CCCO)n(C)c1=O,"inconclusive [activator, partial curve, poor fit]",–
CCCNCC1C(Oc2ccc(Cl)cc2Cl)C(=O)N1c1cccc(C)c1C (stereo unspecified),"inconclusive [activator, single point]",–
COc1cc(OC)c(OC)cc1/C=C/c1ccnc2ccccc12,"inconclusive [activator, single point]",–
COc1ccc(NC(=O)COc2ccc(/C=C/c3cc[n+](C)cc3)cc2OC)cc1,"inconclusive [activator, single point]",–
CCOc1ccc(C(=O)/C=C/Nc2ccc(S(=O)(=O)N=C(N)N)cc2)cc1,"inconclusive [activator, single point]",–
Cc1ccc2c(C)nc(Nc3nc(CSc4nnnn4-c4ccccc4)cc(=O)[nH]3)nc2c1,"inconclusive [activator, single point]",–
COC(=O)[C@H](Cc1c[nH]c2ccccc12)NC(=O)NCc1ccc(OC)cc1,–,inactive: -0.619%
S=C(Nc1ccccn1)c1ccccn1,"inconclusive [activator, single point]",–
CCCN(CCC)C(=O)CC(c1ccc(F)cc1)c1ccco1 (stereo unspecified),"inconclusive [activator, single point]",–
CCc1c(C)[nH]c2nc3ccccc3n2c1=O,–,inactive: 2.98%
CSc1ccccc1OCc1cc(C(=O)NCCc2ccco2)no1,–,inactive: 15.1%
CCCn1c(C(C)Nc2nc(-c3ccc(Cl)c([N+](=O)[O-])c3)cs2)nc2ccccc21 (stereo unspecified),"inconclusive [activator, single point]",–
COc1ccc(Cc2noc(CN3CCN(Cc4cccc(Cl)c4)CC3)n2)cc1OC,–,inactive: 0.329%
O=C(Nc1cccc(-c2cnc3ccccc3n2)c1)C1CC(=O)N(c2ccccc2)C1 (stereo unspecified),"inconclusive [activator, partial curve, poor fit]",–
CCc1cc2c(SCC(=O)N3CC(=O)Nc4ccccc43)ncnc2s1,"inconclusive [activator, partial curve, poor fit]",–
CCCCNc1c(-c2cccc(-c3ccc(OC)cc3)c2)nc2ccc(C)cn12,active: 4.11 µM,–
O=C(COc1ccccc1Cl)NC(=S)N1CCc2ccccc21,–,inactive: 1.68%
O=C(NC(=S)NNC(=O)c1ccc(Cl)cc1Cl)c1cccnc1,"inconclusive [activator, partial curve, poor fit]",–
CN(C)CCCN=c1cc(-c2ccccc2)oc2ccc(Cl)cc12,–,inactive: 20%
CS(=O)(=O)c1ccc(NC(=O)CN2C(=O)C3CCCCC3C2=O)cc1 (stereo unspecified),–,inactive: -4.79%
Cc1cc(C)cc(Oc2nc(C(F)(F)F)nc3ccccc23)c1,"inconclusive [activator, single point]",–
